# Out of some 52,000 compounds screened, about 4,300 (8.3%) were called active. Rule as the data show it: active = survival mostly below about 52% (no sharp cut-off); inactive = mostly above about 56%. The list shows a part of the results.
# Tested on: DeltatarO mutant
# Assay: growth inhibition of S. aureus wild type versus tarO mutant, primary screen, teichoic acid synthesis inhibitors, RN4220, OD600 (AID 463173)
# Details: OD600, 18 h, stronger effect = lower value, screened at 18.75 µg/mL (by protocol)
row,SMILES,survival
1,N#C/C(=C\c1ccc(Cl)cc1)c1nc2ccccc2[nH]1,inactive: 57%
2,Cc1cccc(NC(=O)CSc2nc3c([nH]c4ccccc43)c(=O)n2C)c1C,inactive: 80%
3,CCOc1ccc(NC(=O)c2ccc(-c3nc(COc4ccccc4)c(C)o3)cc2)cc1,inactive: 80%
4,O=C(NCCc1csc(-c2cccc(F)c2)n1)c1cccs1,inactive: 79%
5,O=C(Cc1ccccc1)Nc1sc2c(c1C(=O)Nc1ccc(Cl)cc1)CCCC2,inactive: 47%
6,Cc1ccc(-c2noc(CN3C(C)CCCC3C)n2)cc1 (configuration not stated),inactive: 80%
7,Cc1cc(C)cc(OC(=O)c2snnc2C)c1,inactive: 94%
8,COC1(OC)CCCc2c1no[n+]2[O-],inactive: 81%
9,COc1ccccc1CNC(=O)Cn1ncc2c3ccccc3n(Cc3ccccc3C)c2c1=O,inactive: 66%
10,CC(NC(=O)Nc1ccccc1C(F)(F)F)c1c(-n2cccc2)sc2c1CCCC2 (configuration not stated),inactive: 104%
11,COc1ccccc1NC(=O)CSc1oc(-c2cccs2)nc1S(=O)(=O)c1ccc(Br)cc1,inactive: 68%
12,CCOC(=O)c1ccc(NS(=O)(=O)c2ccc(Br)s2)cc1,active: 38%
13,CN(C(=O)CSc1nc2c(c(=O)[nH]1)CCCC2)c1ccccc1,inactive: 61%
14,COc1ccc(-c2nc(SCC(=O)Nc3ccc4c(c3)OCO4)c(-c3ccc(OC)cc3)[nH]2)cc1,inactive: 81%
15,CCOc1ccc(S(=O)(=O)N2CCN(c3c(C)cccc3C)CC2)c2ccccc12,inactive: 57%
16,CCOc1ccccc1NC(=O)C1CCN(S(=O)(=O)c2ccccc2)CC1,inactive: 49%
17,Cc1cc(Cl)c2cccc(Br)c2n1,inactive: 110%
18,Cc1ccc(C(=O)ON=C2CCN(C)CC2)cc1,inactive: 107%
19,O=C(NC(Nc1ncccn1)C(=O)c1ccccc1)c1ccccc1 (configuration not stated),inactive: 107%
20,COc1cc(NC(=O)Cn2ncc3c([nH]c4ccc(C)cc43)c2=O)cc(OC)c1OC,inactive: 86%
21,COc1cc(C(=O)Nc2ccc3oc(-c4ccccc4)nc3c2)cc(OC)c1OC,inactive: 51%
22,O=C1Nc2ccc(S(=O)(=O)Nc3ccccc3O)c3cccc1c23,inactive: 62%
23,COc1cc(Cl)c(C)cc1NC(=O)CSc1ncc(S(=O)(=O)c2ccc(C(C)(C)C)cc2)c(=O)[nH]1,inactive: 126%

row,SMILES,survival
1,COc1ccc(NC(=O)CSc2nnc(-c3cccs3)o2)cc1,inactive: 54%
2,CCOc1ccccc1Nc1cc(-c2ccccc2)nc(C)n1,inactive: 60%
3,CCCOc1ccc(-c2nn(-c3ccccc3)cc2C2NC(=O)NC(C)=C2C(=O)OC)cc1C (configuration not stated),inactive: 72%
4,CCC(=O)N1CCc2cc(Br)cc(S(=O)(=O)CCC(=O)NCCc3ccc(Cl)cc3)c21,inactive: 70%
5,Cc1ccccc1CNC(=O)C1CCCN(S(=O)(=O)N(C)c2ccc(F)cc2)C1 (configuration not stated),inactive: 84%
6,CCOc1ccccc1NC(=O)Nc1nnc(N2CCCCCC2)s1,inactive: 82%
7,CN(C)c1ccc(-n2nc3ccc4ccccc4c3n2)cc1,inactive: 102%
8,CC(C)CCN(Cc1ccco1)C(=O)c1cc2c(Cl)nc3ccccc3c2s1,inactive: 68%
9,Cc1ccc(S(=O)(=O)CC(=O)Nc2sc3c(c2C#N)CCCCC3)cc1,inactive: 72%
10,O=C(O)/C=C/C(=O)Nc1nnc(-c2ccccc2F)s1,inactive: 97%
11,COc1ccc(-c2noc(CSCC(=O)Nc3cccc(C(F)(F)F)c3)n2)cc1OC,inactive: 88%
12,CCOc1ccc(C2Nc3ccccc3-c3nnc(SCc4ccccc4)nc3O2)cc1OC (configuration not stated),inactive: 50%
13,CC(Oc1ccccc1)C(=O)Nc1ccccc1 (configuration not stated),inactive: 96%
14,COc1ccc(Cn2c(C(=O)O)c(CNC3CCCCCC3)c3ccc(OC)cc32)cc1,inactive: 115%
15,C=Cn1cc[n+](CC(=O)c2ccc(C)cc2)c1,inactive: 102%
16,O=C(/C=C/c1ccc(F)cc1)Nc1nc2n(n1)C(c1ccc(Cl)cc1)C=C(c1ccccc1)N2 (configuration not stated),active: 33%
17,COc1ccc(OC)c(CNC(=O)CCn2c(=O)c3cccn3c3ccc(F)cc32)c1,inactive: 58%
18,COC(=O)c1ccccc1NC(=O)Cn1nnc2sc(-c3ccccc3)cc2c1=O,inactive: 52%
19,CCc1ccc(-c2nn(CC(=O)NC3CCCC3)c3c2cnc2ccc(F)cc23)cc1,inactive: 105%
20,COc1ccc(-c2nc(-c3ccccc3)c(-c3ccc(O)cc3)[nH]2)cc1,active: 1%
21,COc1ccccc1CNS(=O)(=O)c1cc2c3c(c1)CCN3C(=O)CC2,inactive: 77%
22,CC1=CC(C)(C)Nc2ccc(OC(=O)c3ccco3)cc21,inactive: 71%
23,COc1ccccc1C(=O)NCCn1cc(SCc2ccccc2Cl)c2ccccc21,active: 34%

row,SMILES,survival
1,COc1ccccc1C(=O)Nc1nc(-c2ccccc2)ns1,active: 45%
2,Cc1ccc(S(=O)(=O)N2CCCC(NC(=O)N3CCN(c4ccccc4)CC3)C2)cc1 (configuration not stated),inactive: 102%
3,COc1ccc(C(=O)n2nc(-c3ccco3)nc2NCc2cccs2)cc1,inactive: 63%
4,C=Cc1ccc(CN2C(=O)N(c3cccc(Cl)c3)S(=O)(=O)c3ccccc32)cc1,inactive: 64%
5,Cc1ccc2c(=O)c(C(=O)c3cccc(Cl)c3)cn(CC(=O)NCc3ccc(F)cc3)c2n1,inactive: 63%
6,Cc1noc(/C=C/c2ccco2)c1S(=O)(=O)N1CCC(C(=O)Nc2ccc(F)c(Cl)c2)CC1,inactive: 100%
7,COc1ccc(-n2ncc3c(NCCC4=CCCCC4)ncnc32)cc1,inactive: 92%
8,Cc1ccccc1-c1nc(CS(=O)(=O)CC(=O)NCc2cccc(Cl)c2)c(C)o1,inactive: 106%
9,CCC1=Nc2cc(C(=O)NC3CCCC3)ccc2Sc2ccc(Br)cc21,active: 44%
10,Cn1c(-c2ccccc2)c(CCO)c2ccccc21,inactive: 105%
11,Cc1ccc(NC(=O)N2CCc3cc(S(=O)(=O)N4CCC(C)CC4)ccc32)cc1C,inactive: 74%
12,CC1Cc2cc(S(=O)(=O)NCc3ccccc3Cl)ccc2N1C(=O)C1CCC1 (configuration not stated),inactive: 80%
13,CCN(C(=O)c1cc2c(s1)-c1ccccc1OC2)c1cc(Cl)ccc1OC,active: 15%
14,CCOC(=O)c1ccc(Nc2ncnc3c2cnn3-c2cccc(Cl)c2)cc1,inactive: 75%
15,NC(=O)c1cccc(S(=O)(=O)N2CCCCC2)c1,inactive: 94%
16,Cc1ccccc1NS(=O)(=O)c1nnc(NC(=O)c2ccccc2C)s1,inactive: 76%
17,O=S(=O)(NCCS(=O)(=O)N1CCN(c2ccccc2F)CC1)c1ccc(Cl)cc1,inactive: 82%
18,O=C(NCc1cccc(Cl)c1)C(=O)Nc1ccc2nc3n(c(=O)c2c1)CCCCC3,inactive: 105%
19,CCCCN1CCCc2cc(CN(CCCN3CCOCC3)C(=O)Nc3ccc(OCC)cc3)ccc21,inactive: 96%
20,O=C(NCc1ccco1)c1ccc(COCC(F)(F)C(F)F)cc1,inactive: 99%
21,Cc1cc(C)nc(N2CCC(C(=O)Nc3nnc(C(C)C)s3)CC2)n1,inactive: 83%
22,COc1cccc(CN2CCc3nc(SCC(=O)Nc4ccccc4)[nH]c(=O)c3C2)c1,inactive: 81%
23,COc1ccc(C)cc1Nc1c2c(nc3nc(-c4cccs4)nn13)CCCC2,inactive: 91%

row,SMILES,survival
1,CCN(CC)S(=O)(=O)c1ccc2c(c1)N(CC(=O)N1CCN(c3ccccc3F)CC1)C(=O)CO2,inactive: 81%
2,COc1cc(Nc2nc3ccccc3c3nnc(C)n23)cc(OC)c1,active: 37%
3,CCc1c(C)nc2nncn2c1Nc1ccc(C(C)C)cc1,inactive: 69%
4,Cc1ccc(NC(=O)/C(C#N)=C/c2cc(C)n(-c3ccc(F)cc3)c2C)cc1C,inactive: 65%
5,CCc1ccc(NC(=O)Cn2c3ncccc3c(=O)n2-c2ccc(C)c(C)c2)cc1,inactive: 69%
6,O=C(c1ccc2c(c1)N(Cc1ccccc1F)C(=O)c1ccccc1S2=O)N1CCN(c2ccccc2)CC1 (configuration not stated),inactive: 85%
7,Cc1ccc(CNC(=O)c2ccc(-n3cnc4cccnc43)cc2)cc1,inactive: 116%
8,N#CC1(Nc2ccccc2Cl)C(=O)Nc2ccccc21 (configuration not stated),inactive: 69%
9,COc1ccc(N2CCN(C(=O)CCn3c(=O)c4cccn4c4cccnc43)CC2)cc1,inactive: 80%
10,CCOC(=O)c1ccc(NC(=O)c2ncn(-c3ccccc3)n2)cc1,inactive: 99%
11,CCN(CC)c1ccc(C(=O)N2CCC(c3c[nH]c4ccccc34)(c3c[nH]c4ccccc34)CC2)cc1,inactive: 104%
12,CCn1c(SCC(=O)OC)nnc1-c1ccc(O)cc1,inactive: 99%
13,O=C(NC1CCN(Cc2ccccc2)CC1)c1ccc(Cn2c(=O)c3ccccc3n(Cc3ccccc3)c2=O)cc1,inactive: 100%
14,Cc1ccc(-c2nc(-c3cc4cccc(OCc5cccc(C)c5)c4oc3=O)no2)cc1,inactive: 58%
15,CNC(=S)N(Cc1ccco1)Cc1cc2cc(C)ccc2n2nnnc12,inactive: 71%
16,CC(C)(C)OC(=O)N1CCC(c2c(C(=O)NCCN3CCC(Cc4ccccc4)CC3)cnn2-c2ccccc2)CC1,inactive: 80%
17,CCc1ccc(NC(=O)N2CC(C)Oc3ccc(C)cc32)cc1 (configuration not stated),inactive: 96%
18,COc1cc2ccccc2cc1C(=O)Nc1ccc2oc(-c3cccc(Cl)c3Cl)nc2c1,inactive: 56%
19,CN1C(=O)c2ccc(NC3=NS(=O)(=O)c4ccccc43)cc2C1=O,inactive: 79%
20,COc1ccccc1Nc1nc2ccc(Cl)cc2nc1-n1nc(C)cc1C,inactive: 133%
21,Cc1ccc2oc3c(c(=O)c2c1)C(c1ccc(F)cc1)N(c1nc(C)c(C)s1)C3=O (configuration not stated),inactive: 175%
22,COc1ccc(C2CC(=O)Nc3c2c(=O)[nH]c2nc4ccccc4n32)cc1OC (configuration not stated),inactive: 133%
23,COc1ccc(NC(=O)c2nc3nc(C)cc(C(F)F)n3n2)c(C)c1,inactive: 80%
